# “And” between values parts separate entries of the source, which are not always exact repeats. Equal entries are not always repeated. Structures can show the parent of a compound that is named as a salt. Among all 5,800 compounds or so, about 620 (11%) showed activity.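 How the source made its calls: active = score above a cut-off or among the top three wells of a plate; in these data no inactive exceeds 0.85.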 The list shows a part of the results, in another mix than the full data.
# Tested on: primary human hepatic stellate cells (donor 1)
# Assay: scaled lipid accumulation score (0 = DMSO-like, 1 = nortriptyline-like); higher = stronger HSC inactivation (lipid re-accumulation), active = hit call of the paper
# Conditions: 48 h
# [1] = library stock concentration: 10 mM
# [2] = library stock concentration: 80 uM
# [3] = library stock concentration: 400 uM
# [4] = library stock concentration: 2 mM
# [5] = library stock concentration: 3.33 mM
# [6] = library stock concentration: 1 mM
# [7] = library stock concentration: 6.8 mM
smiles,measurement,setting,value
CN1CCC(Nc2ncc3ncnc(Nc4ccc(F)c(Cl)c4)c3n2)CC1.Cl.Cl [BIBX 1382 dihydrochloride],scaled lipid accumulation score,[1],active: 1.61
CN(C(=O)C(Cl)Cl)c1ccc(OC(=O)c2ccco2)cc1 [Diloxanide furoate],scaled lipid accumulation score,,inactive: ≤ 0
same,scaled lipid accumulation score,library stock concentration: 6.1 mM,inactive: ≤ 0
CCc1cc(Nc2nccc(-c3c(-c4ccc(OC)c(C(=O)Nc5c(F)cccc5F)c4)nc4ccccn34)n2)c(OC)cc1N1CCC(N2CCN(S(C)(=O)=O)CC2)CC1,scaled lipid accumulation score,[2],inactive: ≤ -0.009
same,scaled lipid accumulation score,[3],inactive: 0.004
same,scaled lipid accumulation score,[4],inactive: 0.023
same,scaled lipid accumulation score,[5],inactive: ≤ 0
same,scaled lipid accumulation score,[1],inactive: ≤ 0 and inactive: 0.009
O=C1c2ccc(O)c(O)c2C(=O)c2c(O)ccc(O)c21 [Quinalizarin],scaled lipid accumulation score,[1],inactive: ≤ 0
COc1cc(/C=C/C(N)=O)cc(OC)c1OC,scaled lipid accumulation score,[1],inactive: 0.006
OC(CCCN1CCN(c2ncc(F)cn2)CC1)c1ccc(F)cc1 (stereo unspecified),scaled lipid accumulation score,[1],inactive: 0.038
Nc1ccn([C@H]2CC[C@@H](CO)O2)c(=O)n1 [Zalcitabine],scaled lipid accumulation score,,inactive: ≤ 0
same,scaled lipid accumulation score,[5],inactive: ≤ 0
same,scaled lipid accumulation score,[1],inactive: ≤ 0
"Nc1ccn([C@H]2CC[C@@H](CO)O2)c(=O)n1 [2',3'-dideoxycytidine]",scaled lipid accumulation score,[1],inactive: 0.396
Nc1ccn([C@H]2CC[C@@H](CO)O2)c(=O)n1,scaled lipid accumulation score,[1],inactive: ≤ 0
"Nc1ccn([C@H]2CC[C@@H](CO)O2)c(=O)n1 [2',3' - dideoxycytidine]",scaled lipid accumulation score,library stock concentration: 9.5 mM,inactive: ≤ 0
CCCCCCCCCCCCCCC[C@H](O)[C@H](N)CO (racemic) [DL-erythro-Dihydrosphingosine],scaled lipid accumulation score,[1],inactive: ≤ -0.07
C(=C/CCN(C)C)(/c1c2cccc1)\c3c(cccc3)CC2.Cl [Amitriptyline hydrochloride],scaled lipid accumulation score,[1],active: 1.11
CN(C)CCOC(C)(c1ccccc1)c1ccccn1 (stereo unspecified),scaled lipid accumulation score,[1],inactive: ≤ 0
CN(C)CCOC(C)(c1ccccc1)c1ccccn1 (stereo unspecified) [Doxylamine succinate],scaled lipid accumulation score,,inactive: 0.19
same,scaled lipid accumulation score,library stock concentration: 5.1 mM,inactive: 0.007
same,scaled lipid accumulation score,[1],inactive: ≤ 0 and inactive: ≤ -0.005
CN(C)CCOC(C)(c1ccccc1)c1ccccn1 (stereo unspecified) [Doxylamine Succinate],scaled lipid accumulation score,[5],inactive: ≤ 0
same,scaled lipid accumulation score,[1],inactive: 0.086
C=CCNC(N)=S,scaled lipid accumulation score,[1],inactive: ≤ 0
C=CCNC(N)=S [Allylthiourea],scaled lipid accumulation score,[5],inactive: ≤ 0
same,scaled lipid accumulation score,[1],inactive: ≤ -0.001
CNC(=O)c1cccc(-c2ccc3c(N4CCOC[C@@H]4C)nc(N4CCOC[C@@H]4C)nc3n2)c1,scaled lipid accumulation score,[2],inactive: 0.009
same,scaled lipid accumulation score,[3],inactive: ≤ -0.001
same,scaled lipid accumulation score,[4],inactive: 0.064
same,scaled lipid accumulation score,[5],inactive: 0.037
same,scaled lipid accumulation score,[1],inactive: ≤ 0 and inactive: ≤ -0.001
COc1cccc(-c2cc(=O)c3ccccc3o2)c1N,scaled lipid accumulation score,[6],inactive: ≤ 0
same,scaled lipid accumulation score,[5],inactive: ≤ 0
same,scaled lipid accumulation score,[1],inactive: ≤ 0 and inactive: ≤ -0.006
same,scaled lipid accumulation score,library stock concentration: 18.7 mM,inactive: 0.064
C[C@@H](O)[C@H]1C(=O)N2C(C(=O)O)=C(S[C@@H]3CN[C@H](CNS(N)(=O)=O)C3)[C@H](C)[C@H]12 [Doripenem Hydrate],scaled lipid accumulation score,[5],inactive: ≤ 0
same,scaled lipid accumulation score,[1],inactive: 0.073
Oc1c(I)cc(Cl)c2cccnc12 [Clioquinol],scaled lipid accumulation score,,inactive: ≤ 0
CC(C)(C#N)c1cc(Cn2cncn2)cc(C(C)(C)C#N)c1 [Anastrozole],scaled lipid accumulation score,[5],inactive: 0.046
same,scaled lipid accumulation score,[7],inactive: ≤ -0.006
same,scaled lipid accumulation score,[1],inactive: ≤ 0
CC(C)(C#N)c1cc(Cn2cncn2)cc(C(C)(C)C#N)c1,scaled lipid accumulation score,[1],inactive: ≤ 0
COc1cc2nccc(Oc3ccc(NC(=O)Nc4cc(C)on4)c(Cl)c3)c2cc1OC,scaled lipid accumulation score,[2],inactive: 0.016
same,scaled lipid accumulation score,[3],inactive: ≤ 0
same,scaled lipid accumulation score,[4],inactive: 0.009
same,scaled lipid accumulation score,[1],inactive: 0.246
"COc1cc2nccc(Oc3ccc(NC(=O)Nc4cc(C)on4)c(Cl)c3)c2cc1OC [AV951 (KRN951, Tivozanib) (10 mM)]",scaled lipid accumulation score,[1],inactive: 0.775
"COc1cc2nccc(Oc3ccc(NC(=O)Nc4cc(C)on4)c(Cl)c3)c2cc1OC [AV951 (KRN951, Tivozanib) (2 mM)]",scaled lipid accumulation score,[4],inactive: ≤ -0.005
"COc1cc2nccc(Oc3ccc(NC(=O)Nc4cc(C)on4)c(Cl)c3)c2cc1OC [AV951 (KRN951, Tivozanib) (0.4 mM)]",scaled lipid accumulation score,[3],inactive: ≤ -0.005
COc1cc2nccc(Oc3ccc(NC(=O)Nc4cc(C)on4)c(Cl)c3)c2cc1OC [Tivozanib (AV-951)],scaled lipid accumulation score,[5],inactive: 0.068
same,scaled lipid accumulation score,[1],inactive: 0.098
COc1cc2nccc(Oc3ccc(NC(=O)Nc4cc(C)on4)c(Cl)c3)c2cc1OC [VEGFR Tyrosine Kinase Inhibitor IV],scaled lipid accumulation score,[5],inactive: ≤ 0
CN(CC(=O)N(Cc1ccc(C2CCCCC2)cc1)c1ccc(C(=O)O)cc1)S(=O)(=O)c1c(F)c(F)c(F)c(F)c1F,scaled lipid accumulation score,[5],inactive: ≤ -0.009
same,scaled lipid accumulation score,[1],inactive: 0.483
OC(CNCC(O)C1CCc2cc(F)ccc2O1)C1CCc2cc(F)ccc2O1 (stereo unspecified) [Nebivolol],scaled lipid accumulation score,[5],inactive: 0.769
same,scaled lipid accumulation score,[1],inactive: ≤ 0
CC(=O)NS(=O)(=O)c1ccc(NC(=O)c2ccccc2C(=O)O)cc1,scaled lipid accumulation score,[1],inactive: ≤ 0
CCCCCCCCCCCCCCCCOCC(CO)OC (stereo unspecified) [1-Hexadecyl-2-O-methyl-glycerol],scaled lipid accumulation score,[6],inactive: 0.003
O=C(CCc1ccc(O)cc1)c1c(O)cc(O)cc1O [Phloretin],scaled lipid accumulation score,[5],inactive: ≤ 0
same,scaled lipid accumulation score,[1],inactive: ≤ 0
CC[C@H](C)[C@H](N)C1=N[C@H](C(=O)N[C@@H](CC(C)C)C(=O)N[C@H](CCC(=O)O)C(=O)N[C@H](C(=O)N[C@H]2CCCCNC(=O)[C@H](CC(N)=O)NC(=O)[C@@H](CC(=O)O)NC(=O)[C@H](Cc3cnc[nH]3)NC(=O)[C@@H](Cc3ccccc3)NC(=O)[C@H]([C@@H](C)CC)NC(=O)[C@@H](CCCN)NC2=O)[C@@H](C)CC)CS1 [Bacitracin],scaled lipid accumulation score,,inactive: ≤ 0
same,scaled lipid accumulation score,library stock concentration: 1.4 mM,inactive: 0.019
same,scaled lipid accumulation score,[5],inactive: ≤ 0
same,scaled lipid accumulation score,[1],inactive: ≤ -0.001 and inactive: ≤ 0
CN1CCC(NC(=O)C2=CC(=C3C(O)=CC(=O)C=C3Oc3ccc([N+](=O)[O-])cc3)ON2)CC1,scaled lipid accumulation score,[1],active: 0.976
"Nc1ccc2c3c(cccc13)C(=O)NC2=O [4-Amino-1,8-naphthalimide]",scaled lipid accumulation score,[1],active: 0.886
CN1CCN(CCCN2c3ccccc3Sc3ccc(C(F)(F)F)cc32)CC1 [Trifluoperazine 2HCl],scaled lipid accumulation score,[5],inactive: ≤ 0
same,scaled lipid accumulation score,[1],inactive: 0.815
CN1CCN(CCCN2c3ccccc3Sc3ccc(C(F)(F)F)cc32)CC1 [Trifluoperazine hydrochloride],scaled lipid accumulation score,[1],inactive: 0.396
CN1CCN(CCCN2c3ccccc3Sc3ccc(C(F)(F)F)cc32)CC1 [Trifluoperazine dihydrochloride],scaled lipid accumulation score,,inactive: 0.393
CN1CCN(CCCN2c3ccccc3Sc3ccc(C(F)(F)F)cc32)CC1 [Trifluoperazine],scaled lipid accumulation score,library stock concentration: 4.9 mM,inactive: 0.434
CN1CCN(CCCN2c3ccccc3Sc3ccc(C(F)(F)F)cc32)CC1,scaled lipid accumulation score,[1],active: 0.99
CN(C)CCN1C(=O)c2ccccc2N(C)c2ccccc21 [Dibenzepine HCl],scaled lipid accumulation score,[7],inactive: ≤ 0
COc1ccc(OC)c(C(O)CNC(=O)CN)c1 (stereo unspecified) [Midodrine hydrochloride],scaled lipid accumulation score,,inactive: ≤ 0
same,scaled lipid accumulation score,library stock concentration: 6.9 mM,inactive: 0.005
same,scaled lipid accumulation score,[1],inactive: ≤ -0.027
COc1ccc(OC)c(C(O)CNC(=O)CN)c1 (stereo unspecified) [Pro-Amatine],scaled lipid accumulation score,[1],inactive: ≤ 0
CC(S)C(=O)NCC(=O)O (stereo unspecified) [Tiopronin],scaled lipid accumulation score,[5],inactive: ≤ 0
same,scaled lipid accumulation score,[1],inactive: ≤ 0
CC(S)C(=O)NCC(=O)O (stereo unspecified),scaled lipid accumulation score,[1],inactive: ≤ 0
CNC[C@H](O)c1ccc(O)c(O)c1 [Epinephrine HCl],scaled lipid accumulation score,[5],inactive: 0.007
same,scaled lipid accumulation score,[1],inactive: ≤ 0
CNC[C@H](O)c1ccc(O)c(O)c1 [(?)-Epinephrine hydrochloride],scaled lipid accumulation score,[1],inactive: 0.578
CNC[C@H](O)c1ccc(O)c(O)c1 [(-)-Epinephrine bitartrate],scaled lipid accumulation score,[1],inactive: 0.396
CNC[C@H](O)c1ccc(O)c(O)c1 [Epinephrine Bitartrate],scaled lipid accumulation score,[5],inactive: ≤ 0
same,scaled lipid accumulation score,[1],inactive: ≤ 0
CNC[C@H](O)c1ccc(O)c(O)c1 [Adrenaline bitartrate],scaled lipid accumulation score,library stock concentration: 6 mM,inactive: ≤ 0
same,scaled lipid accumulation score,[1],inactive: ≤ 0
N#Cc1cc2c(OCC(O)CN3CCN(C(c4ccccc4)c4ccccc4)CC3)cccc2[nH]1 (stereo unspecified),scaled lipid accumulation score,library stock concentration: 10.7 mM,inactive: 0.795
CC(C)(C)NCC(O)COc1cccc2c1CCC(=O)N2 (stereo unspecified) [Carteolol HCl],scaled lipid accumulation score,[5],inactive: ≤ 0
same,scaled lipid accumulation score,[1],inactive: ≤ -0.001
CC(C)(C)NCC(O)COc1cccc2c1CCC(=O)N2 (stereo unspecified) [Carteolol hydrochloride],scaled lipid accumulation score,,inactive: ≤ 0
C=C1c2c(Cl)ccc(O)c2C(=O)C2=C(O)[C@]3(O)C(=O)C(C(N)=O)=C(O)[C@@H](N(C)C)[C@@H]3[C@@H](O)[C@H]12.O=C(O)c1cc(S(=O)(=O)O)ccc1O [Meclocycline sulfosalicylate],scaled lipid accumulation score,,inactive: 0.032
same,scaled lipid accumulation score,library stock concentration: 2.9 mM,inactive: ≤ 0
same,scaled lipid accumulation score,[1],inactive: ≤ 0
CC(C)C[C@H](NC(=O)[C@H](O)[C@H](N)Cc1ccccc1)C(=O)O [Epibestatin hydrochloride],scaled lipid accumulation score,[1],inactive: ≤ -0.07
CNC(=O)c1cc(Oc2ccc(NC(=O)Nc3ccc(Cl)c(C(F)(F)F)c3)c(F)c2)ccn1 [Regorafenib (BAY 73-4506)],scaled lipid accumulation score,[5],inactive: ≤ 0
same,scaled lipid accumulation score,[1],inactive: ≤ 0
CNC(=O)c1cc(Oc2ccc(NC(=O)Nc3ccc(Cl)c(C(F)(F)F)c3)c(F)c2)ccn1 [Regorafenib],scaled lipid accumulation score,[2],inactive: ≤ -0.016
same,scaled lipid accumulation score,[3],inactive: 0.033
same,scaled lipid accumulation score,[4],inactive: ≤ -0.016
same,scaled lipid accumulation score,[1],inactive: ≤ -0.016
CN(C)CC(=O)Nc1ccc2[nH]c(=O)c3ccccc3c2c1,scaled lipid accumulation score,[5],inactive: ≤ 0 and inactive: ≤ -0.009
same,scaled lipid accumulation score,[1],inactive: 0.59 and inactive: 0.025
